Out of some 360,000 compounds screened, about 16,000 (4.4%) were called active. The inconclusive results got no clear call from the source; some entries with a clear call stand among them for comparison. The call rests on the fitted dose curve; in most records, active means well fitted inhibition curve with a large enough effect; inconclusive means small, poorly fitted or top-dose-only effect; inactive means no such curve, though single readings can be large or run the other way. A potency beside an inconclusive call is a rough fit, not a confirmed value.
biological target: Bromodomain adjacent to zinc finger domain protein 2B (Homo sapiens) (UniProt Q9UIF8); experiment: qHTS Assay for Inhibitors of BAZ2B; details: AlphaScreen BAZ2B-H3K14Ac peptide displacement; activity change, negative = inhibition: at 114 µM (top of the series) unless noted; further: nearly all actives have a fitted effect of over 60% in size
Sequence of UniProt Q9UIF8 (Q9UIF8 whole entry, looked up, the tested form may be a part): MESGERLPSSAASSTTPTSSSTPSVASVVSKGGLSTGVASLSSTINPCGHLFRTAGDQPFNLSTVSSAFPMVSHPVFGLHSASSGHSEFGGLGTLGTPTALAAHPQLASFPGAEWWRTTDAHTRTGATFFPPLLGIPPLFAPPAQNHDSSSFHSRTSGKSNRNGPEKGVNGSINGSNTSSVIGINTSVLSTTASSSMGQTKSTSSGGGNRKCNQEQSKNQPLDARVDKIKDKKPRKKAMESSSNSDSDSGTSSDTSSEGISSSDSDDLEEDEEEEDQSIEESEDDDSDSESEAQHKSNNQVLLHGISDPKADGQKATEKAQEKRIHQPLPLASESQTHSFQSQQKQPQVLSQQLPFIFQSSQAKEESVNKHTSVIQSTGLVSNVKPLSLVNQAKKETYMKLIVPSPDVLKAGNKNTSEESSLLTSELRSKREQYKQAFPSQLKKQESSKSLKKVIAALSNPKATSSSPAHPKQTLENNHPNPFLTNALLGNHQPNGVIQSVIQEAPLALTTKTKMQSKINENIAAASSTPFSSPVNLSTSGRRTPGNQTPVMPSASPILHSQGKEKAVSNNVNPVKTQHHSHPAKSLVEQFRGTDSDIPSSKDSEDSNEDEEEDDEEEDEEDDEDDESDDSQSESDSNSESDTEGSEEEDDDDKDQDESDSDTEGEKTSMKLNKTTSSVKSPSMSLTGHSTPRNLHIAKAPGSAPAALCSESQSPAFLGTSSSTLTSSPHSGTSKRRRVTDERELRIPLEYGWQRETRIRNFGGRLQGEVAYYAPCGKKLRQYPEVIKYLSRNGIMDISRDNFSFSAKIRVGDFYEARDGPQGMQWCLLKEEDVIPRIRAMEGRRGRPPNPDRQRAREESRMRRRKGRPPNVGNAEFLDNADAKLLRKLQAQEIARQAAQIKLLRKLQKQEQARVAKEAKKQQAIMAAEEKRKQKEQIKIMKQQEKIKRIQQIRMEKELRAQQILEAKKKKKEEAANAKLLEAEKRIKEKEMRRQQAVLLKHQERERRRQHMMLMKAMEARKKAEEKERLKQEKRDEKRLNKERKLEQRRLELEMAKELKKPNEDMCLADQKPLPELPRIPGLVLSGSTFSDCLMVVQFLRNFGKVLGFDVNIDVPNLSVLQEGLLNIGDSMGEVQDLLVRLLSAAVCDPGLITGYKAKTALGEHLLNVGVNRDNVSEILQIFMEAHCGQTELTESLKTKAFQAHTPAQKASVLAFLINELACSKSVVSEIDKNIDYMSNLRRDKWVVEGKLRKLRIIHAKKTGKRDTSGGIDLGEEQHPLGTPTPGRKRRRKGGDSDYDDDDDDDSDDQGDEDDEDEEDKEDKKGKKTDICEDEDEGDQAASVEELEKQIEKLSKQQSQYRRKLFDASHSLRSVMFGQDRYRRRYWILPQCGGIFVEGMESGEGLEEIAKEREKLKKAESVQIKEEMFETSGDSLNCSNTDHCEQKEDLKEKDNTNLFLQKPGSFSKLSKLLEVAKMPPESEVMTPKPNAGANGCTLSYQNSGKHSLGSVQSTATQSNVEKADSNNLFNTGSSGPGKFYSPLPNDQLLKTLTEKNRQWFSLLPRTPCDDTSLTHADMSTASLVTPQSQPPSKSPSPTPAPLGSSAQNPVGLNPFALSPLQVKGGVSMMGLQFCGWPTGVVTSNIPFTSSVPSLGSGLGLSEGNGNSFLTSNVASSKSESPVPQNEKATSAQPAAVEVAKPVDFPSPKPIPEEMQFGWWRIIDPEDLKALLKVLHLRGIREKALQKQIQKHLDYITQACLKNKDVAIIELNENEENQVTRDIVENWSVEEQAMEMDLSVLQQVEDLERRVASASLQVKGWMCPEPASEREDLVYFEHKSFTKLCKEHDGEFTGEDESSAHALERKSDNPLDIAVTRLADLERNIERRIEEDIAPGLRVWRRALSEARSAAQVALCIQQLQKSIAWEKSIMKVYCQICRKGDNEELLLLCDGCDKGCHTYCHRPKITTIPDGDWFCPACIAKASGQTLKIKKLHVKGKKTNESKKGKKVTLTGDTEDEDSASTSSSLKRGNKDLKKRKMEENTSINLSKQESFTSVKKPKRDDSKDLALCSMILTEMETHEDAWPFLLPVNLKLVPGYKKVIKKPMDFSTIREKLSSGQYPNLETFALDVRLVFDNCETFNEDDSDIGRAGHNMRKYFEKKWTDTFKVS
Method in brief: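 AlphaScreen displacement of biotin-H3(5-23)K14Ac peptide (50 nM final) from BAZ2B (50 nM final) in PBS pH 7.4, 0.01% Tween-20; complex preformed 30 min RT, then compounds (top 110 uM) 30 min RT, beads 20 min dark.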
On the % scale 0 is the no-effect control and ±100 the full control effect; potency means the concentration at half of the fitted maximal effect; tags describe the fitted curve by direction and shape.

Compound | Potency | activity change, negative = inhibition
O=C(O)c1cccc(N/N=C/c2cn(-c3ccccc3)nc2-c2cccs2)c1 | inconclusive: 70.8 µM [inhibitor, single point] | –
Cc1ccc(S(=O)(=O)c2nnn3c2nc(NC2CCCCC2)c2sccc23)cc1 | – | inactive: -1.22%
COc1ccc(S(=O)(=O)Nc2ccc(O)c(Sc3ncn[nH]3)c2)cc1 | – | inactive: -6.7%
Cc1ccc(C)c(Cn2c(=O)n(-c3ccc(Cl)cc3)c(=O)c3c(C)c(C)sc32)c1 | – | inactive: 2.2%
C#CCOCCOCCOCCNc1nc(N2CCN(C(=O)[C@H]([C@@H](C)CC)n3cc(CCCCN)nn3)CC2)nc(N2CCN(C(=O)[C@H](C)n3cc(CCC(=O)O)nn3)CC2)n1 | inconclusive: 89.1 µM [inhibitor, partial curve] | –
Cc1ccc(Cn2c(=O)n(Cc3ccco3)c(=O)c3oc4ccccc4c32)cc1 | – | inactive: -15.8%
Cc1cc(C)c(OCCCCNCc2ccccc2)c(Cl)c1 | active: 56.2 µM | –
CCOc1cc(CNc2ccc(OC)cc2)cc(Br)c1OCC(=O)NC(C)(C)C | active: 17.8 µM | –
Cc1ccc(C)c(NC(=O)CSc2nc3c([nH]c4ccccc43)c(=O)n2-c2ccc(F)cc2)c1 | – | inactive: 1.25%
O=C(C1CCN(S(=O)(=O)c2cccc3nsnc23)CC1)N1CCCc2ccccc21 | inconclusive: 56.2 µM [inhibitor, partial curve] | –
Clc1ccc(-c2ccc(CN3CCCCC3)o2)cc1 | inconclusive: 50.1 µM [inhibitor, partial curve] | –
FC(F)(F)c1ccc2c(c1)n(Cc1ccccc1)c1[n+]2CCCCC1 | inconclusive: 89.1 µM [inhibitor, single point] | –
CCOC(=O)CN(C(=O)c1snc(C(N)=O)c1N)C(C(=O)NC1CCCCC1)c1ccc(F)cc1 (stereo unspecified) | active: 79.4 µM | –
COc1ccc(OC)c(/C=N/NC(=O)CCN2CCN(C(c3ccccc3)c3ccccc3)CC2)c1 | inconclusive: 39.8 µM [inhibitor, partial curve] | –
CCc1nnc(SCC(=O)N(CC)c2ccccc2)c2cc3oc(C)cc3n12 | inconclusive: 89.1 µM [inhibitor, single point] | –
COc1cc(C(CCN2CCN(c3ccccc3)CC2)c2c(OC)cc(OC)c3c(C)cc(=O)oc23)cc(OC)c1OC (stereo unspecified) | inconclusive: 39.8 µM [inhibitor, full curve] | –
CC(=O)NC(c1cc(F)c2cccnc2c1O)C(C)C (stereo unspecified) | active: 79.4 µM | –
CCCCCCNC(=O)c1ncn[nH]1 | inconclusive: 100 µM [inhibitor, partial curve] | –
CCCC(=O)OCCNc1cc(SCc2ccco2)c2nonc2c1[N+](=O)[O-] | active: 25.1 µM | –
O=C(Nc1ccc(N2CCCC2)c(Cl)c1)c1ccccc1[N+](=O)[O-] | inconclusive: 25.1 µM [inhibitor, full curve] | –
CCCn1c2ccccc2c2cnn(CC(=O)NCCCN3CCCC(C)C3)c(=O)c21 (stereo unspecified) | – | inactive: 0.785%
COc1ccccc1N1C(=O)C(Cl)=C(Nc2ccccc2O)C1=O | inconclusive: 50.1 µM [inhibitor, partial curve] | –
C=CCOc1ccc(/C=C2\C(=N)N3N=C(S(=O)(=O)CC)SC3=NC2=O)cc1OC | inconclusive: 79.4 µM [inhibitor, partial curve] | –
COC(=O)c1ccc(NC(=O)CSc2n[nH]c(CC(C)C)n2)cc1 | – | inactive: 5.24%

Compound | Potency | activity change, negative = inhibition
COC(=O)c1c(NC(=O)CN2CCN(C(=O)c3ccco3)CC2)c2c(C)cccc2n1C | – | inactive: -36.2%
CCOC(=O)c1nnc(-c2ccccc2)nc1Sc1c(Cl)cccc1Cl | inconclusive: 28.2 µM [inhibitor, full curve] | –
O=C(CSc1ncnc2c1oc1ccccc12)NCc1ccco1 | active: 50.1 µM | –
CC(=O)Nc1ccc(S(=O)(=O)NNc2ccc([N+](=O)[O-])cc2)cc1 | active: 50.1 µM | –
Cc1ccc(-n2c(Cl)c(Cl)nc(Cl)c2=O)cc1 | inconclusive: 70.8 µM [inhibitor, single point] | –
CCN(CC)S(=O)(=O)c1cccc(N=Nc2sc(N)nc2C)c1 | active: 11.2 µM | –
COc1ccc(N2CCN(C(=O)c3ccc(C)c(NC(=O)C4=C(C)OCCS4)c3)CC2)cc1 | active: 44.7 µM | –
COc1cc(CNc2ccc3[nH]c(=O)[nH]c3c2)cc(Cl)c1OCc1ccccc1F | – | inactive: -16.2%
CSc1nnc(N2C(=O)C(O)=C(C(=O)c3ccc(C)o3)C2c2ccc(C)cc2)s1 (stereo unspecified) | inconclusive: 50.1 µM [inhibitor, partial curve] | –
Cc1ccc(-c2nc3ccccc3[nH]2)cc1NC(=O)COc1cccc(C)c1C | inconclusive: 89.1 µM [inhibitor, single point] | –
CCOC(=O)c1c(NS(=O)(=O)Cc2ccccc2)sc2c1CCCC2 | inconclusive: 4.47 µM [inhibitor, single point] | –
COc1ccc(OC)c(NC(=O)C(=O)NNC(=O)c2cccs2)c1 | inconclusive: 70.8 µM [inhibitor, single point] | –
COc1cccc(NC(=O)CCN2C(=O)C3CC=CCC3C2=O)c1 (stereo unspecified) | – | inactive: -10.9%
CN(C(=O)CSc1nc2ccccc2n1Cc1cccc(C(F)(F)F)c1)c1ccccc1 | – | inactive: 5.02%
Cc1ccc(NC(=O)CN2CCN(Cc3ccccc3)CC2)cc1 | – | inactive: -2.87%
O=C(Nc1ccc(N2CCCCC2)c(Cl)c1)c1ccc2c(c1)OCCO2 | – | inactive: -22.3%
O=S(=O)(Nc1ccc(-n2cccc2)cc1)c1ccc(Cl)c(Cl)c1 | inconclusive: 50.1 µM [inhibitor, partial curve] | –
ClCC1NCC(c2ccccc2Cl)c2c1[nH]c1ccccc21 (stereo unspecified) | active: 44.7 µM | –
O=S(=O)(Nc1ccc(-c2cn3cccnc3n2)cc1)c1ccccc1 | inconclusive: 89.1 µM [inhibitor, single point] | –
CC[C@H](CO)Nc1nc(Nc2cccc(Cl)c2)c2ncn(C(C)C)c2n1 | inconclusive: 50.1 µM [inhibitor, partial curve] | –
COc1ccc(C)cc1NC(=O)CC(=O)Nc1ccc2nc3n(c(=O)c2c1)CCCCC3 | inconclusive: 56.2 µM [inhibitor, partial curve] | –
Cc1ccc(S(=O)(=O)Cc2ccc(C(=O)N3CCN(Cc4ccccc4)CC3)o2)cc1 | active: 50.1 µM | –
C/C(=N\Nc1ccccn1)c1ccc(C#N)cc1 | inconclusive: 79.4 µM [inhibitor, single point] | –
CCn1c(=O)cc(OCC(=O)NCc2ccco2)c2ccccc21 | inconclusive: 79.4 µM [inhibitor, single point] | –

Compound | Potency | activity change, negative = inhibition
O=C(O)CN1C(=O)/C(=C2\C(=O)N(Cc3ccccc3Cl)c3ccccc32)SC1=S | inconclusive: 3.98 µM [inhibitor, full curve] | –
CNc1ccc(Oc2nc([N+](=O)[O-])nn2C)cc1 | – | inactive: -21%
O=C(C[n+]1cc(-c2ccc(Cl)c(Cl)c2)n2c1CCC2)c1cccs1 | inconclusive: 79.4 µM [inhibitor, single point] | –
CCOC(=O)CCCCC(=O)c1[nH]c(=O)[nH]c1CN1CCOCC1 | active: 15.8 µM | –
O=C(/C=C(\O)c1ccccc1)C(=O)NNC(=O)c1ccccc1[N+](=O)[O-] | inconclusive: 70.8 µM [inhibitor, partial curve] | –
Cc1nn(-c2cccc(Cl)c2)c2c1C(c1ccncc1)C(C#N)=C(N)O2 (stereo unspecified) | active: 39.8 µM | –
CCC(CC)C(=O)N1CCN(Cc2ccc3c(c2)OCO3)CC1 | inconclusive: 89.1 µM [inhibitor, single point] | –
COc1cc(OC)c(C2=NOC(C(=O)NCc3cccnc3)C2)cc1Cl (stereo unspecified) | – | inactive: 8.65%
Cc1ccc(OCCNC(=O)c2cncc(Br)c2)cc1C | – | inactive: 10.2%
O=C(NCc1ccco1)c1ccc2c(c1)N(Cc1ccccc1F)C(=O)c1ccccc1S2=O (stereo unspecified) | inconclusive: 20 µM [inhibitor, full curve] | –
COc1ccc2sc(N(CCCN(C)C)C(=O)c3ccc(C(=O)c4ccccc4)cc3)nc2c1 | inconclusive: 79.4 µM [inhibitor, single point] | –
O=C(CSc1nnc(NC(=O)c2ccccc2F)s1)Nc1ccccc1F | – | inactive: -18.7%
O=C1N=C(N2CCc3ccccc3C2)S/C1=C\c1ccc(O)cc1 | inconclusive: 50.1 µM [inhibitor, partial curve] | –
CC(=O)c1ccc(NC(=O)Cn2ncc3c(C)n(Cc4ccc(F)cc4)c(C)c3c2=O)cc1 | – | inactive: 1.73%
COc1ccccc1CNc1ncnc2c1c(-c1ccccc1)cn2-c1cccc(C)c1 | inconclusive: 17.8 µM [inhibitor, full curve] | –
NNc1nc(Nc2ccc([N+](=O)[O-])cc2)nc(N2CCCCCC2)n1 | active: 28.2 µM | –
COc1ccccc1C(=O)Nc1nc2nc(C)c(Cc3ccccc3)c(=O)n2[nH]1 | inconclusive: 79.4 µM [inhibitor, single point] | –
CSCCC(NC(=O)c1ccco1)C(=O)OCC(=O)Nc1ncc(Cl)c(C)c1Cl (stereo unspecified) | – | inactive: -37.8%
Cc1ccccc1CNC(=O)CCC(=O)N1CC2CCCN2c2ccccc21 (stereo unspecified) | inconclusive: 50.1 µM [inhibitor, partial curve] | –
Cn1cc([N+](=O)[O-])c(C(=O)Nc2cc(Oc3cccnc3)cc([N+](=O)[O-])c2)n1 | inconclusive: 89.1 µM [inhibitor, single point] | –
Cc1cc2[nH]c(=O)c(=O)[nH]c2cc1S(=O)(=O)Nc1cccc(C)c1C | – | inactive: -10.4%
CCOC(=O)c1ccc(NC(=O)c2nccnc2C(=O)O)cc1 | inconclusive: 79.4 µM [inhibitor, single point] | –
COc1ccc(C)cc1Nc1n[n+](-c2ccccc2)c(-c2ccc(NC(C)=O)cc2)s1 | inconclusive: 79.4 µM [inhibitor, single point] | –

— PubChem BioAssay AID504333 (National Center for Advancing Translational Sciences (NCATS), 2011)
